Measurements from publication PMC4336329 (PLoS ONE, 2015).
Screen size: about 310,000 compounds; about 2,200 (0.71%) showed an effect of 50% or more. Effects have a minus sign here. Some of the results follow.

molecular target: human ether-à-go-go-related gene (hERG) potassium channel (human, UniProt Q12809); test: primary screen, population patch clamp on CHO cells stably expressing hERG
Sequence (Q12809 whole entry, looked up): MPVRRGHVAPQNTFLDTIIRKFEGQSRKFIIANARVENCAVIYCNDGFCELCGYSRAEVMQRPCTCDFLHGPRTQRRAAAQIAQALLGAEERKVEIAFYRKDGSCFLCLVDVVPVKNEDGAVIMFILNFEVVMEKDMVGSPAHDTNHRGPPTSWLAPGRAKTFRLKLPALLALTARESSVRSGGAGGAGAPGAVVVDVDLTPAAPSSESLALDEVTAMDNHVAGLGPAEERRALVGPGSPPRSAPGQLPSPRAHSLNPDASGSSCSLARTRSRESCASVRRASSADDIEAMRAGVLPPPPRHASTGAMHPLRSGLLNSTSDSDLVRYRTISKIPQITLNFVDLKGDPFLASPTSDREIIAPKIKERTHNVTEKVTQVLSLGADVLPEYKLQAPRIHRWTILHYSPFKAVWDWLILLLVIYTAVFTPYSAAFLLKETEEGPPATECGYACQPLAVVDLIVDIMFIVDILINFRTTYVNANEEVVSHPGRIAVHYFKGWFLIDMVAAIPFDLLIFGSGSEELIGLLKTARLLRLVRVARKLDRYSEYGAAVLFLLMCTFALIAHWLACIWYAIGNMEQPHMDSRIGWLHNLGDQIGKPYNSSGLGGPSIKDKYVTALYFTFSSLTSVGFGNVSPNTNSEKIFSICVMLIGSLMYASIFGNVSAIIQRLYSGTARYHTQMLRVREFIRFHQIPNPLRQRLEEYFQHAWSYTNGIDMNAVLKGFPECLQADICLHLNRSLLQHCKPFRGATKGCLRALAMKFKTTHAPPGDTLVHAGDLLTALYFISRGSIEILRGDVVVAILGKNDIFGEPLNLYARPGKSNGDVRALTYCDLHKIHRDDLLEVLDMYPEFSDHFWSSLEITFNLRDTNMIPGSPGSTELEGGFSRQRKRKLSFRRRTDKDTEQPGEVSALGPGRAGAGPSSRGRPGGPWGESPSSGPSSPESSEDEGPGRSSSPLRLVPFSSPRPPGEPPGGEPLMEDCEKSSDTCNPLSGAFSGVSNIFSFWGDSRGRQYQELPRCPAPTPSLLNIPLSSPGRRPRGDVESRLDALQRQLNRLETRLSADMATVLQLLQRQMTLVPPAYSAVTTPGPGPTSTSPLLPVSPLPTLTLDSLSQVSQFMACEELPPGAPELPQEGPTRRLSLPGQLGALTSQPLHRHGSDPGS

SMILES	hERG current change (%, negative = inhibition) at 1uM
COc1ccccc1CC(=O)Nc1ccc([N+](=O)[O-])cc1O	13.6%
FC(F)(F)c1ccccc1NC(=S)Nc1cccc(Cl)c1	10.7%
CCn1c(CCNC(=O)c2ccc(OC)cc2)nnc1SCC(=O)Nc1ccccc1F	9.18%
N#CC1=C(N)Oc2cc(N)ccc2C1c1cc(Br)cs1 (stereo not drawn)	-2.94%
CCCC(=O)NC(NC(=S)Nc1ccc(S(N)(=O)=O)cc1)C(Cl)(Cl)Cl (stereo not drawn)	3.2%
O=C(CSCc1ccc([N+](=O)[O-])cc1)Nc1ccccc1C(=O)O	15.4%
CC1CCC(NC(=O)Cn2cc3c(n2)CCCC3)CC1 (stereo not drawn)	14.2%
Cc1[nH]c2ccccc2c1C(=O)COC(=O)C1CC(=O)N(Cc2ccccc2)C1 (stereo not drawn)	9.57%
C=CCNC(=O)c1ccccc1NC(=O)c1ccc(Cl)c(S(=O)(=O)Nc2cc(C)ccc2C)c1	14.2%
O=C(Cn1nnc(-c2ccc(N3CCOCC3)cc2)n1)OC1CCCCC1	-4.08%
CCn1nnc2cc(C(=O)O)ccc21	12.5%
COc1ccccc1OCC(=O)Nc1c2c(nn1-c1ccc(F)cc1)CS(=O)(=O)C2	8.27%
Cc1ccccc1NC(=S)NCc1ccc2c(c1)cc(C)n2C	5.37%
CN(C)c1ccc(Nc2ncnc3ccc(Br)cc23)cc1	14.8%
CCCC(=O)N1CCN(c2ccc(NC(=O)c3ccc(Br)o3)cc2)CC1	2.26%
CCOc1ccc(C(=O)NCC(=O)N2CCC(C)CC2)cc1OCC	7.39%
CCOc1cc(S(=O)(=O)N2CCN(c3ccc(F)cc3)CC2)c(OCC)cc1-n1cnnn1	-0.931%
CCOc1ncccc1C(=O)N1CCN(C(=O)c2ccccc2)CC1	18.7%
Cc1nc(N2CCN(Cc3ccc4c(c3)OCO4)CC2)c2cc(-c3ccccc3)sc2n1	10.9%

SMILES	hERG current change (%, negative = inhibition) at 1uM
CN(CC(=O)NCCc1ccccc1)Cc1ccco1	12.1%
COc1ccccc1NC(=O)CSc1nnc2ccccn12	8.34%
CC1CCC(C(C)C)C(OC(=O)COC(=O)c2cccn2C)C1 (stereo not drawn)	17.6%
CC(Nc1cc(N2CCCC2)ccc1[N+](=O)[O-])c1ccccc1 (stereo not drawn)	7.88%
CC1(C)CN(C(=S)Nc2ccc(F)cc2F)C1=O	11.1%
O=C(NNC(=O)c1nn(-c2ccc(F)cc2)ccc1=O)c1ccc(Cl)cc1	-2.41%
Cc1ccc(NC(=O)COC(=O)CN2C(=O)NC(C)(C)C2=O)cc1S(=O)(=O)N1CCOCC1	14.4%
COc1ccc(CCN2C(=O)CC(N3CCN(S(=O)(=O)c4ccccc4)CC3)C2=O)cc1 (stereo not drawn)	1.91%
OCCN1CCN(c2nc(-c3ccccc3O)nc3ccccc23)CC1	5.86%
CN(C)/C=C(\C(=O)c1ccccc1)c1nnnn1-c1ccccc1	12.4%
COc1cccc(-c2nnc3sc(-c4ccccc4)nn23)c1	8.88%
Cn1nnnc1SCC(=O)c1ccc2c(c1)OCCO2	11.8%
Cc1cccc(-n2c(SCCC(=O)O)nnc2-c2cccs2)c1C	13.4%
Cc1ccc(NC(=O)C(=O)c2c[nH]c3ccccc23)cc1	16.3%
CC(=O)N/N=C(/C)c1ccc(NC(=O)c2csc(C)c2C)cc1	4.17%
Cc1ccc2ccc(S(=O)(=O)NCc3ccco3)cc2c1	9.89%
Cc1ccc2c(c1)c1c3n2CCN(C(=O)Cn2c(-c4ccccc4)noc2=O)C3CCC1 (stereo not drawn)	7.24%
CCc1ccc(C(=O)Nc2cccnc2Oc2ccc(Cl)cc2)cc1	3.24%
Cc1ccc(-c2csc(N=C(N)N)n2)cc1	11%

SMILES	hERG current change (%, negative = inhibition) at 1uM
CCOC(=O)C1(CC2CC2)CCN(Cc2ccc(O)c(Cl)c2)CC1	5.92%
Cc1nc(-c2ccccc2O)n(-c2ccccc2)n1	11.6%
O=C(Nc1ccccc1)c1cc([N+](=O)[O-])ccc1Cl	10%
S=C(Nc1ccccc1Cl)N(Cc1ccccc1)Cc1ccccn1	2.77%
O=C(Nc1ccccc1)C(c1ccccc1)c1ccccc1	8.8%
COc1ccc(CCN(C(=O)C(F)(F)F)C(C(=O)NC2CCCC2)c2cccs2)cc1 (stereo not drawn)	5.29%
COc1ccc(OC)c(NC(=O)CCCCCn2nnc3ccccc3c2=O)c1	1.62%
O=C(c1ccccn1)c1ccc2ccccc2n1	11.3%
COc1ccccc1/C=C/C(=O)OCCN1C(=O)c2ccccc2C1=O	-0.119%
CC(C)CNC(=O)COC(=O)c1ccc2c(c1)C(=O)N(Cc1ccco1)C2=O	13.5%
CC(C)=CCN1CCN(Cc2ccc(Oc3ncccn3)cc2)CC1CCO (stereo not drawn)	2.09%
Nc1nc(NCc2ccccc2)nc(NCc2ccccc2)c1[N+](=O)[O-]	13.5%
CC(NCc1ccccc1O)C12CC3CC(CC(C3)C1)C2.Cl (stereo not drawn)	14.3%
COc1cc(/C=N/NC(=O)c2ccncc2)ccc1OC(=O)c1ccc([N+](=O)[O-])cc1	7.59%
CC(Oc1cc2oc(=O)c3c(c2cc1Cl)CCCC3)C(=O)NCc1cccnc1 (stereo not drawn)	-4.57%
CCOC(=O)C1=C(N)OC2=C(C(=O)CCC2)C12C(=O)N1c3c(ccc(C)c32)C(C)=CC1(C)C (stereo not drawn)	-8.24%
COc1ccc(CN(C(=O)c2ccccc2OC)C2CCS(=O)(=O)C2)cc1 (stereo not drawn)	0.962%
O=C(Nc1nnc(CSCc2ccc(F)cc2)s1)c1ccc([N+](=O)[O-])cc1	4.5%
Cc1noc(NS(=O)(=O)c2ccc(NC(=O)/C=C/c3ccc(Br)cc3)cc2)c1C	13.5%
